{"source": "PubChem BioAssay AID2025", "about": "(NMMLSC, 2009)", "note": "Screen size: about 330,000 compounds; about 980 (0.3%) were called active.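 How the source made its calls: active means percent response vs DMSO below 50%; inconclusive means fewer than 70 events counted for the yeast strain; inactive means the rest.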 Where a structure was tested more than once in an assay, its records may differ in their call. Not every entry of the source has a single result; some have several. They are shown here; other results are not. The source may hold further records. The records of an entry repeat one measurement across runs, samples, wells, individuals or studies. Brackets tell where a record comes from. A, B and so on number the origins entry by entry.", "data": [{"assay": "compounds altering RPL19A-GFP fluorescence, TOR branch – cell-based, S. cerevisiae, multiplex flow cytometry, MLPCN, primary screen (AID 2025);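 further: median channel GFP fluorescence of the barcoded RPL19A-GFP strain; ratio of sample median GFP to plate DMSO average so 100% = DMSO; lower means less RPL19A-GFP as with rapamycin TOR inhibition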", "settings": "S. cerevisiae RPL19A-GFP strain, 3 h, at 10 µM, stronger effect = lower value", "values": [{"compound": "O=C(Cn1c[n+](CC(=O)c2ccc([N+](=O)[O-])cc2)cn1)c1ccc([N+](=O)[O-])cc1", "percent response vs DMSO": "inactive: 93% [sample A] and active: 47.7% [may fluoresce violet] [sample B]"}]}]}
